In PubChem BioAssay AID485281 (National Center for Advancing Translational Sciences (NCATS), 2010):
Among all 350,000 compounds or so, about 260 (0.074%) were called active. This list was built around the results that the source calls inconclusive (neither active nor inactive); the mix of calls is not that of the screen. The call rests on the fitted dose curve; in most records, active means well fitted inhibition curve with a large enough effect; inconclusive means small, poorly fitted or top-dose-only effect; inactive means no such curve, though single readings can be large or run the other way. Potencies of inconclusive entries are doubtful fits and often do not repeat.

Each molecule was assayed against Ferritin light chain (Equus caballus) (UniProt P02791) (assay: qHTS Assay for Identification of Novel General Anesthetics). Conditions: apoferritin/1-aminoanthracene competitive binding, fluorescence; activity change, negative = displacement: at 77.5 µM (top of the series).
Outline: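 Concentration-response curves derived by four-parameter Hill fitting of normalized fluorescence, where compounds displaced 1-AMA from 10 uM horse apoferritin following a brief 10 min room-temperature incubation; propofol titration acted as positive control.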
Further: nearly all actives have a fitted effect of over 20% in size.
On the % scale 0 is the no-effect control and ±100 the full control effect; potency means the concentration at half of the fitted maximal effect; tags describe the fitted curve by direction and shape.

Sequence of UniProt P02791 (P02791 whole entry, looked up): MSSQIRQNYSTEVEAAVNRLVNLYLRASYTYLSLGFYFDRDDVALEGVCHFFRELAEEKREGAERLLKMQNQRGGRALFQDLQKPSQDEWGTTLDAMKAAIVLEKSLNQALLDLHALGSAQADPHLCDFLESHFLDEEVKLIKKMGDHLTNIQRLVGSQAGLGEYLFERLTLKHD

Activity change, negative = displacement, inactive:
Cc1cccnc1NC(=S)Nc1ncccc1C 1.33%
Cn1nc(C(=O)OCc2ccc(F)cc2)c2ccccc2c1=O -4.16%
CCOCCCn1c(SCC(=O)OCC)nc2c(sc3ccccc32)c1=O -9.75%
Cc1occc1-c1nnc(SCCCC(=O)c2ccc(F)cc2)n1C -21.9%

Potency, inconclusive:
Cc1ccccc1CNc1ccc(C(CC(N)=O)NC(=O)c2ccccc2)cc1[N+](=O)[O-] (stereo not drawn) 39.8 µM [inhibitor, partial curve]
CCOC(=O)C1(CCOc2ccccc2)CCN(Cc2ccc(OC)c(O)c2)CC1 20 µM [inhibitor, partial curve]
CC1CCN(S(=O)(=O)c2ccc(C(=O)N3CCN(c4ccccc4F)CC3)cc2)CC1 12.6 µM [inhibitor, partial curve]
COCCNC(=O)CSc1nc(-c2cc(OC)c(OC)c(OC)c2)[nH]c1-c1ccc(Cl)cc1 1.26 µM [inhibitor, full curve]
Cc1cnc(C(=O)OCC(=O)NC2CCCC(C)C2C)cn1 (stereo not drawn) 17.8 µM [inhibitor, partial curve]
Cc1ccc(C2CC(c3cccs3)=NN2S(=O)(=O)c2ccc(C)cc2)cc1 (stereo not drawn) 12.6 µM [inhibitor, partial curve]
CCc1ccc(NC(=O)Cn2c(=O)n(CCCCC(=O)NCc3ccc4c(c3)OCO4)c(=O)c3ccccc32)cc1 6.31 µM [inhibitor, single point]
COc1cc(/C=N/NC(=O)C2C3CCCCC32C)cc(Br)c1O (stereo not drawn) 56.2 µM [inhibitor, single point]
CN1/C(=C/C(=S)NC(=O)C2(C)CC2(Cl)Cl)C(C)(C)c2ccccc21 (stereo not drawn) 14.1 µM [inhibitor, partial curve]
O=C1/C(=C\c2ccc(O)c(O)c2)C(c2ccccc2)=NN1c1ccccc1 25.1 µM [inhibitor, partial curve]
CC1=CC(=C2C(=O)c3ccccc3C2=O)C=C(C)N1C 35.5 µM [inhibitor, partial curve]
Cc1ccc(Nc2nc(N)nc(CN3CCN(Cc4ccc5c(c4)OCO5)CC3)n2)cc1Cl 14.1 µM [inhibitor, partial curve]
Cc1sc(NC(=O)COc2cccc(-n3cnnn3)c2)c(C#N)c1C 31.6 µM [inhibitor, single point]
Cc1ccc(OCC(=O)Nc2nnc(S(=O)(=O)N3c4ccccc4CC3C)s2)cc1 (stereo not drawn) 25.1 µM [inhibitor, partial curve]
